# Test results from the supplement of paper PMC8728848.
# Some of the results follow.
# What was measured:
# Test in all cases: glycan array binding signal (z-score within array); higher = stronger binding
# Details in all cases: glycan notation: IUPAC condensed, linker removed
# [1] = biological target: GalNAc(a1-3)GalNAc
# In short: (§1)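 The binding signal is a Z-score computed within each array. Data were drawn from 3228 arrays in the Consortium for Functional Glycomics database, restricted to those with a known protein sequence. Scores were averaged over arrays of the same protein sequence at different concentrations or buffers, and over linkers, and negative values can be taken as non-binding.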
# [2] = biological target: GalNAc(a1-3)GalNAc(b1-3)Gal(a1-4)Gal(b1-4)Glc
# In short: as §1
# [3] = biological target: GalNAc(a1-3)GalNAc(b1-3)Gal(a1-4)Gal(b1-4)GlcNAc
# In short: as §1
# [4] = biological target: GalNAc(b1-3)Gal
# In short: as §1
# [5] = biological target: GalNAc(b1-3)Gal(a1-4)Gal(b1-4)GlcNAc
# In short: as §1
# [6] = biological target: GalNAc(b1-3)Gal(a1-4)Gal(b1-4)GlcNAc(b1-3)Gal(b1-4)Glc
# In short: as §1
# [7] = biological target: GalNAc(b1-3)Gal(a1-6)Gal(b1-4)Glc
# In short: as §1
# [8] = biological target: GalNAc(b1-3)GalNAc
# In short: as §1
# [9] = biological target: GalNAc(b1-3)GlcNAc
# In short: as §1
# [10] = biological target: GalNAc(b1-4)Gal(b1-4)Glc
# In short: as §1
# [11] = biological target: GalNAc(b1-4)GlcNAc
# In short: as §1
# [12] = biological target: GalNAc(b1-4)GlcNAc(b1-2)Man
# In short: as §1
# [13] = biological target: GalNAc(b1-4)GlcNAc(b1-2)Man(a1-3)[GalNAc(b1-4)GlcNAc(b1-2)Man(a1-6)]Man(b1-4)GlcNAc(b1-4)GlcNAc
# In short: as §1
# [14] = biological target: GalNAc(b1-4)GlcNAc(b1-3)GalNAc(b1-4)GlcNAc
# In short: as §1
# [15] = biological target: GalNAc(b1-4)GlcNAc6S
# In short: as §1
# [16] = biological target: GalNAc(b1-6)GalNAc
# In short: as §1
# [17] = biological target: GalNAc3S(b1-4)GlcNAc
# In short: as §1
# [18] = biological target: GalNAc3S(b1-4)GlcNAc3S
# In short: as §1
# [19] = biological target: GalNAc3S(b1-4)[Fuc(a1-3)]GlcNAc
# In short: as §1
# [20] = biological target: GalNAc4S6S(b1-4)GlcNAc
# In short: as §1
# [21] = biological target: GalNAc6S(b1-4)GlcNAc
# In short: as §1
# [22] = biological target: Glc(a1-4)Glc
# In short: as §1
# [23] = biological target: Glc(a1-4)Glc(a1-4)Glc(a1-4)Glc
# In short: as §1
# [24] = biological target: Glc(a1-6)Glc(a1-6)Glc
# In short: as §1
# [25] = biological target: Glc(a1-6)Glc(a1-6)Glc(a1-6)Glc
# In short: as §1
# [26] = biological target: Glc(b1-4)Glc
# In short: as §1
# [27] = biological target: Glc(b1-6)Glc
# In short: as §1
# [28] = biological target: GlcA(b1-3)Gal
# In short: as §1
# [29] = biological target: GlcA(b1-3)GlcNAc
# In short: as §1
# [30] = biological target: GlcA(b1-6)Gal
# In short: as §1
# [31] = biological target: GlcA3S(b1-3)Gal(b1-4)GlcNAc(b1-2)Man
# In short: as §1
# [32] = biological target: GlcA3S(b1-3)Gal(b1-4)GlcNAc(b1-3)Gal(b1-4)Glc
# In short: as §1
# [33] = biological target: GlcNAc(a1-3)Gal(b1-4)GlcNAc
# In short: as §1
# [34] = biological target: GlcNAc(a1-4)Gal(b1-3)GlcNAc
# In short: as §1
# [35] = biological target: GlcNAc(a1-4)Gal(b1-4)GalNAc
# In short: as §1
# [36] = biological target: GlcNAc(a1-4)Gal(b1-4)GlcNAc
# In short: as §1
# [37] = biological target: GlcNAc(a1-4)Gal(b1-4)GlcNAc(b1-3)Gal(b1-4)Glc
# In short: as §1
binder,measurement,setting,value
XL-35 (Xenopus laevis) (protein) MLVHILLLLVTGGLSQSCDPVVIVASKNMVKQLDCDKFRNCKEIKDSNEEAQDGIYTLTSPDGISYQTFCDMTTNGGGWTLVASVHENNMAGKCTIGDRWSSQQGNRADYPEGDGNWANYNTFGSAGGATSDDYKNPGYYDIEAYNLGVWHVPNKTPLSVWRNSSLQRYRTTDGILFKHGGNLFSLYRIYPVKYGIGSCSKDSGPTVPVVYDLGSANLTASFYSPGFRSQFTPGYIQFRPINTEKAALALCPGMKMESCNVEHVCIGGGGYFPEADPRQCGDFAAYDFNGYGTKKFNSAGIEITEAAVLLFYL,glycan array binding signal (z-score),[1],-0.094
same,glycan array binding signal (z-score),[2],-0.291
same,glycan array binding signal (z-score),[3],-0.369
same,glycan array binding signal (z-score),[4],-0.169
same,glycan array binding signal (z-score),[5],0.014
same,glycan array binding signal (z-score),[6],-0.027
same,glycan array binding signal (z-score),[7],-0.303
same,glycan array binding signal (z-score),[8],-0.054
same,glycan array binding signal (z-score),[9],0.051
same,glycan array binding signal (z-score),[10],0.155
same,glycan array binding signal (z-score),[11],0.518
same,glycan array binding signal (z-score),[12],0.164
same,glycan array binding signal (z-score),[13],0.116
same,glycan array binding signal (z-score),[14],-0.391
same,glycan array binding signal (z-score),[15],-0.325
same,glycan array binding signal (z-score),[16],-0.413
same,glycan array binding signal (z-score),[17],0.077
same,glycan array binding signal (z-score),[18],0.009
same,glycan array binding signal (z-score),[19],-0.078
same,glycan array binding signal (z-score),[20],0.078
same,glycan array binding signal (z-score),[21],-0.092
same,glycan array binding signal (z-score),[22],-0.067
same,glycan array binding signal (z-score),[23],0.071
same,glycan array binding signal (z-score),[24],-0.098
same,glycan array binding signal (z-score),[25],0.158
same,glycan array binding signal (z-score),[26],-0.303
same,glycan array binding signal (z-score),[27],0.029
same,glycan array binding signal (z-score),[28],-0.196
same,glycan array binding signal (z-score),[29],-0.417
same,glycan array binding signal (z-score),[30],0.045
same,glycan array binding signal (z-score),[31],-0.708
same,glycan array binding signal (z-score),[32],-0.126
same,glycan array binding signal (z-score),[33],-0.074
same,glycan array binding signal (z-score),[34],0.45
same,glycan array binding signal (z-score),[35],-0.303
same,glycan array binding signal (z-score),[36],-0.335
same,glycan array binding signal (z-score),[37],0.22
